Each structure is given as a SMILES string. The campaign covered roughly 340,000 compounds. About 6,900 (2%) were called active. No stated cut-off is given here; in the data, active means inhibition above about 30%; inactive means below that, where a call was filed. The list shows a part of the results, in another mix than the full data. Entries without a call were filed so in the source.

Sequence of UniProt P14416 (P14416 whole entry, looked up): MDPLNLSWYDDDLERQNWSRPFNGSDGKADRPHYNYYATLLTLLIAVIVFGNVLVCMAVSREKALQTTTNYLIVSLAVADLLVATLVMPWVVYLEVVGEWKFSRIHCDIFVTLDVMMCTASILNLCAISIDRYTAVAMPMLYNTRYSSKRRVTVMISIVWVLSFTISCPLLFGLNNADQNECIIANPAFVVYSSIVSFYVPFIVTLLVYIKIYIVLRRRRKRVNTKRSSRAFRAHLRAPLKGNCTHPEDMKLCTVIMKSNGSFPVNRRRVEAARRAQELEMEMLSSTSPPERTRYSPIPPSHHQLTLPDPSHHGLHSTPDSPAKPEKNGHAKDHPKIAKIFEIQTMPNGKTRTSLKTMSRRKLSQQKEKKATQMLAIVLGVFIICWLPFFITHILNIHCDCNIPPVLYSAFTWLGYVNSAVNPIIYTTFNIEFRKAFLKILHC

This assay addresses D(2) dopamine receptor (Homo sapiens) (UniProt P14416). As to the kind of experiment: HTS Assay for Allosteric Antagonists of the Human D2 Dopamine Receptor: Primary Screen for Antagonists. Further: 0% is about no effect. To be noted: HEK293 TREx D2 cells, calcium flux, dopamine EC80; at 10 µM; stronger effect = higher value. Put shortly:
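Antagonism is scored as inhibition of an EC80 dopamine-evoked calcium signal in a force-coupled, tetracycline-inducible HEK293 T-REx D2 line, with compound present 180 s before agonist.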
In general terms: Calcium flux is commonly read through the fluorescence of an indicator in the cells.
The inhibition is the relative decrease from the control value, in per cent. Turning to `CCOc1ccc(CNC(=O)C2CCN(S(=O)(=O)c3cn(C)cn3)CC2)cc1`, the inhibition is -8.03%.

As to `O=C(CN1C(=O)CCn2nc(-c3ccccc3)cc21)NCc1ccc(F)cc1`, the inhibition was -7.8%.

As for `N=c1c(C(=O)NCC2CCCO2)cc2c(=O)n3ccccc3nc2n1CCCO` (stereo not given), the inhibition came out at 9.69%.

For the compound `CCOc1cc(C(=O)NCCc2csc3nc(-c4ccccc4F)nn23)cc(OCC)c1OCC`, the inhibition was -11%.

Take `COc1ccc(F)cc1S(=O)(=O)NCC(c1ccco1)S(=O)(=O)c1ccc(F)cc1` (stereo not given): the inhibition was -12.4%.

Turning to `COc1ccc(Cn2c(C(=O)O)c(CNCCc3ccco3)c3ccc(C)cc32)cc1`, the inhibition was 6.63%.

In the case of `Cc1cc(C(F)F)n2nc(C(=O)Nc3cccc(Cl)c3C)nc2n1`, the inhibition amounted to 8.16%.

Take `Cc1ccccc1OCC(=O)Nc1ccccc1C(=O)OCc1cc(=O)n2ccsc2n1`: the inhibition is -1.56%.

With `CC(C)(CNC(=O)c1ccc(-c2ccccc2Cl)o1)N1CCOCC1`, the inhibition was active: 39.8%.

Consider `Cc1nn(CCCC(=O)NCCc2ccc(Cl)cc2)c(=O)c2c1sc1ccccc12`, for which the inhibition is -4.73%.

Take `Cc1ccc(NC(=O)CCCn2c(=O)c3cccn3c3ccccc32)c(C)c1`: the inhibition was determined as 24.6%.

Regarding `CCOC(=O)c1cnc2c(ccc3ccccc32)c1Nc1cccc(C(F)(F)F)c1`, the inhibition is -7.75%.

For the compound `CCCC(=O)Nc1ccc2oc(-c3cccnc3)nc2c1`, the inhibition was active: 31.9%.

For the compound `Cc1ccc(C(=O)NCC(c2ccc3c(c2)OCO3)N2CCN(C)CC2)cc1C` (stereo not given), the inhibition came out at 8.19%.

As to `CCc1noc(-c2ccc(NCc3ccccc3)c([N+](=O)[O-])c2)n1`, the inhibition was found to be 11.2%.

As for `COc1ccccc1N1CCN(C(=O)c2cn(C)c3ccc(S(=O)(=O)N(C)C4CCCCC4)cc3c2=O)CC1`, the inhibition was found to be 7.36%.

With `CCOc1ccc(NC(=O)c2cnn(-c3ccc(C)c(C)c3)c2C2CCN(C(=O)OC(C)(C)C)CC2)cc1`, the inhibition came out at 25.5%.

With `CC1=C(C(=O)Nc2ccccc2)C(c2ccc(C(=O)O)cc2)n2ncnc2N1` (stereo not given), the inhibition was determined as 1.09%.

Turning to `CCOc1ccc(Nc2nc3c(S(=O)(=O)c4cccc(Cl)c4)nnn3c3ccsc23)cc1`, the inhibition is 5.4%.

As to `CCc1ccc(OCC(=O)N(Cc2ccco2)Cc2ccccc2Cl)cc1`, the inhibition is -8.67%.

`CC(C)c1ccc(NC(=O)CSC2=Nc3ccccc3C3=NC(CC(=O)NC4CCCCC4)C(=O)N23)cc1` (stereo not given): the inhibition stood at 14.3%.

As to `CC(=O)N1N=C(c2cccnc2)OC1c1ccc(C(C)C)cc1` (stereo not given), the inhibition is active: 55.4%.

Consider `COc1ccc(-c2nc3ccccc3n3c(-c4ccccc4)c4c(=O)n(C)c(=O)n(C)c4c23)cc1`, for which the inhibition was -5.92%.

As for `COc1ccc2c(Sc3ccc(Cl)cc3)c(C(=O)N3CCCCC3)[nH]c2c1`, the inhibition was found to be 26.3%.

In the case of `Cc1ccc(C(=O)NN2C(=O)c3ccc(S(=O)(=O)c4ccc(C(=O)O)cc4)cc3C2=O)cc1`, the inhibition is active: 62.6%.

Take `O=C(CSc1oc(-c2ccco2)nc1S(=O)(=O)c1ccc(Cl)cc1)Nc1ccc(F)cc1`: the inhibition turned out to be 9.69%.

With `OC1(c2ccc(F)cc2)CCN(Cc2cccnc2)CC1`, the inhibition is active: 33.8%.

As for `COc1ccc(-n2nc(C(=O)Nc3cccc(Cl)c3)c3c4ccccc4n(C)c3c2=O)cc1Cl`, the inhibition was -1.08%.

Regarding `O=C(Nc1ccc(Br)cc1)c1cccc(S(=O)(=O)N2CCc3ccccc32)c1`, the inhibition came out at 18.6%.

Turning to `CC(C)(C)c1ccc(-c2nnc(-c3ccccc3NC(=O)c3ccc(F)cc3F)o2)cc1`, the inhibition turned out to be 6.38%.

Consider `Cc1cc(NC(=S)N(CCN2CCCCC2)Cc2ccco2)ccc1Cl`, for which the inhibition is active: 35.3%.

For the compound `Cc1cc(C)cc(N(CC(=O)N2CCCCCC2)S(C)(=O)=O)c1`, the inhibition is active: 34.2%.

With `COc1ccc(N2CCN(CCCNC(=O)c3ccc4nc(N5CCCCC5)sc4c3)CC2)cc1`, the inhibition stood at 10.2%.

Consider `Cc1ccc(/C=C/c2onc(C)c2S(=O)(=O)N2CCC(C(=O)N(CCC(C)C)Cc3ccco3)CC2)cc1`, for which the inhibition is -21.7%.

Consider `CCc1cccc(NC(=O)CCNS(=O)(=O)c2ccc3c(c2)CCN3C(C)=O)c1`, for which the inhibition was -1.13%.

Regarding `CCOC(=O)CSc1nc2cc3c(cc2c(=O)n1CCCCCC(=O)NCc1ccc(OC)cc1)OCO3`, the inhibition is -27.7%.

Consider `CN(C)c1ccc(CNC(=O)c2ccc3nc(CCc4ccccc4)oc3c2)cc1`, for which the inhibition is 7.88%.

Take `Cc1ccc(N2C(=O)CSC23C(=O)N(CC(=O)Nc2ccccc2F)c2ccccc23)cc1C` (stereo not given): the inhibition is -19.1%.

Consider `Cc1ccc(CNC(=O)c2ccc(CS(=O)(=O)c3ccccc3C)o2)cc1`, for which the inhibition is -1.16%.

As for `C=CCc1ccccc1OCCNCc1ccccc1`, the inhibition is active: 69%.

As to `CCOc1ccc(NC(=O)c2oc3ccccc3c2NC(=O)c2cc3ccccc3o2)cc1`, the inhibition is 16.2%.

`COc1ccccc1NC(=O)Cn1c(=O)n(-c2ccc(C)cc2)c(=O)c2c1cnn2C`: the inhibition is -3.07%.

With `CCC(C)c1ccc(OCC(=O)Nc2ccc(-c3nc4ncccc4o3)cc2)cc1` (stereo not given), the inhibition is 1.51%.

Take `CC(OC(=O)COc1ccc(C#N)cc1)C(=O)c1ccccc1` (stereo not given): the inhibition is active: 31.9%.

`CCOC(=O)c1ccc(NC(=O)c2c(NCc3cccc(OC)c3OC)sc3c2CCC3)cc1`: the inhibition was -1.96%.

Take `CC(C)Oc1ccc(C(=O)N2CCCCC2CCN2CCCCC2)cc1` (stereo not given): the inhibition was -12.7%.

Turning to `CCCOc1ccc(CNC(=O)c2cc3ccccn3n2)cc1`, the inhibition is 9.51%.

As to `CCOC(=O)c1sc(N2C(=O)c3oc4ccc(F)cc4c(=O)c3C2c2ccc(O)cc2)nc1C` (stereo not given), the inhibition was 13.1%.

For `Cc1cc(CNC(=O)c2cccc([N+](=O)[O-])c2)c2ccccc2n1`, the inhibition is active: 49.1%.

`O=C(NCC1c2ccccc2CCN1C(=O)CN1C(=O)c2ccccc2C1=O)C1CCCCC1` (stereo not given): the inhibition is active: 30.4%.

Consider `Cc1ccc(N2C(=O)N(Cc3cccc(Cl)c3)c3ccccc3S2(=O)=O)cc1`, for which the inhibition was -6.66%.

Regarding `CCC1CN(C(=O)Nc2cc(Cl)ccc2C(=O)OC)c2ccccc2S1` (stereo not given), the inhibition was 14.7%.

With `COc1ccc(OC)c(NC(=O)COCc2cc(-c3ccc(F)cc3)on2)c1`, the inhibition was 14.3%.

On to `Cc1ccc(C)c(Cn2c(=O)n(CCCC(=O)NCc3ccc4c(c3)OCO4)c(=O)c3sccc32)c1`, for which the inhibition is 12.2%.

Consider `CCCSc1ncc(Cl)c(C(=O)N2CCN(c3ccc(OC)cc3)CC2)n1`, for which the inhibition is -10.7%.

`COc1ccc(-c2noc(CCC(=O)NCCN3CCN(c4ccccc4F)CC3)n2)cc1`: the inhibition was active: 64.7%.

Regarding `CN(C(=O)c1nn(C)c2c1CS(=O)(=O)c1ccccc1-2)c1cccc(Cl)c1`, the inhibition was found to be 4.48%.

Turning to `CCc1ccccc1NC(=O)CSc1nc2c(c(=O)[nH]1)CN(Cc1ccccc1OC)CC2`, the inhibition turned out to be 3.59%.

With `COc1ccccc1-n1c(=O)n(C)c2c(C(N)=O)nc(-c3cc(OC)c(OC)c(OC)c3)nc21`, the inhibition stood at 10.4%.

Regarding `COc1ccc(C)cc1NC(=O)CCN1CCN(C/C=C/c2ccccc2)CC1`, the inhibition is active: 68%.

These data come from PubChem BioAssay AID485344 (National Center for Advancing Translational Sciences (NCATS), 2010).
